PMC6919601, “Identification of Plasmodium dipeptidyl aminopeptidase allosteric inhibitors by high throughput screening” (PLoS ONE, 2019)
“And” between values parts separate entries of the source, which are not always exact repeats. Identical values can stand only once. In all, about 110,000 compounds went through this assay and about 230 (0.21%) showed an effect of 50% or more. The list shows a part of the results.

Molecular target: DPAP1 (Plasmodium falciparum, UniProt Q8IIJ9)
Assay: primary screen, percent inhibition; read by cleavage of a fluorogenic dipeptide substrate; higher = more effect of the substance
Design: species or system P. falciparum D10 trophozoite lysates; single well
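Note: 30 min substrate incubation versus DMSO and 10 µM JCP410 controls.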

Sequence of DPAP1 (Q8IIJ9 whole entry, looked up): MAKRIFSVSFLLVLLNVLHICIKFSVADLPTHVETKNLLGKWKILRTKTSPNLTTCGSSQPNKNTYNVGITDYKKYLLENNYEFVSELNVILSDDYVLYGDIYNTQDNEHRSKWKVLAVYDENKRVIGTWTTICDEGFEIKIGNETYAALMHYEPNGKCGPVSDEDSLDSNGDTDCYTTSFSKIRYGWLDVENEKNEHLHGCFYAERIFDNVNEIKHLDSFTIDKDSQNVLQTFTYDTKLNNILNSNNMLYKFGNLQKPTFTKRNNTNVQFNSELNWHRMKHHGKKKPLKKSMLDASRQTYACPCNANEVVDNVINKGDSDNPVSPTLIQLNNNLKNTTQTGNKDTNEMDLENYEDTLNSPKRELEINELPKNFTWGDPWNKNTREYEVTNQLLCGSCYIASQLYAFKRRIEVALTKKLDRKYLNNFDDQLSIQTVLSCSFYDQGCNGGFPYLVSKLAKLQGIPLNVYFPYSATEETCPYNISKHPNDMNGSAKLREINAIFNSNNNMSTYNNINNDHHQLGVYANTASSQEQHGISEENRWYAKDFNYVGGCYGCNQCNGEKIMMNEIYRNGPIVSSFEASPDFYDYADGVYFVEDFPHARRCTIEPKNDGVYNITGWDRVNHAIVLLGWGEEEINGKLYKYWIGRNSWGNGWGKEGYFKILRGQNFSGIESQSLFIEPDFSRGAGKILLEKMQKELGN

SMILES	% Inhibition @ 10 uM
Cc1cccc(-c2c3c(=O)n(C)c(=O)n(C)c3cn2-c2cccc(C#N)c2)c1	3.62%
CCc1ccc(N2C(=O)C(Cl)=C(N3CCOCC3)C2=O)cc1	-4.76%
CN(C)c1ccc(NC(=O)Cn2cnc3c2c(=O)n(C)c(=O)n3C)cc1	-8.33%
CNC(=O)c1c(NC(=O)c2ccco2)sc2c1CCC(C(C)(C)C)C2 (centres unmarked)	0.777%
COc1ccc(CNCCc2c(C)[nH]c3ccc(OC)cc23)c(F)c1	1.64%
C=Cc1ccc(Cn2c(C(=O)O)c(CNC3CCCCCC3)c3ccc(C)cc32)cc1	-0.356%
Cc1ccc(C(=O)C2=C(O)C(=O)N(CCCn3ccnc3)C2c2ccc(C)cc2)cc1 (centres unmarked)	-3.45%
Cc1ccnc(N2C(=O)c3ccc(Oc4ccc5c(c4)C(=O)N(c4cc(C)ccn4)C5=O)cc3C2=O)c1	0.997%
O=S(=O)(c1ccc(Br)cc1)N1CCSC1c1ccc(Cl)cc1 (centres unmarked)	-1.82%
CN(Cc1ccccc1)C(=O)c1cc(-c2ccc(Cl)cc2)[nH]n1	6.73%
CC1CCN(S(=O)(=O)c2ccc(Oc3ccc(S(=O)(=O)N4CCC(C)CC4)cc3)cc2)CC1	3.66%
O=C(ON1C(=O)c2cccc3cccc(c23)C1=O)c1ccccc1F	-6.55%
CN(Cc1ccccc1)C(=O)CN1CCN(Cc2ccc(Cl)cc2)C1=O	-0.704%
CCCC(=O)NC(c1ccc(C)cc1)c1cc(Cl)c2cccnc2c1O (centres unmarked)	3.6%
COc1cccc(OCCCN2CCCC2)c1	3%
CC(Sc1nc(-c2ccccc2)cc(C(F)(F)F)n1)C(=O)Nc1cccnc1 (centres unmarked)	-3.92%
CC(C)(C)c1ccc(/C=C/C(=O)N2CCOCC2)cc1	-1.33%
CCCCN(C)C(C)CCc1ccc(O)cc1 (centres unmarked)	-4.14%
CCN1CCN(C(=O)c2c(-c3ccccc3)noc2C)CC1	6.82%
CCOC(=O)C1=C(N)Oc2ccc3ccccc3c2C1c1cccnc1 (centres unmarked)	1.26%
Cc1cc(C)c(-c2c(O)c3c(n(C)c2=O)CC(C)(C)CC3=O)c(C)c1	0.674%
O=C1CC(c2ccccc2Cl)NC(NC(=O)c2cccnc2)=N1 (centres unmarked)	-6.87%

SMILES	% Inhibition @ 10 uM
CN1C(=O)CC2CC1(C)Oc1ccccc12 (centres unmarked)	6.23%
CCOC(=O)c1cc2c(OC)ccc(OC)c2n1CC(=O)c1ccccc1	3.24%
O=C(NCc1cccnc1)c1ccccc1Br	0.467%
O=C(O)CCCNc1ncnc2c1ncn2C1OC(CO)C(O)C1O (centres unmarked)	1.21%
Cn1nnnc1SCCNCC#Cc1ccccc1	-1.71%
O=C(CSc1nnc(C2COc3ccccc3O2)o1)N1CCOCC1 (centres unmarked)	1.3%
COc1ccc(-c2nc(CS(=O)(=O)CC(=O)NCc3cccnc3)c(C)o2)cc1	-5.58%
Cc1nc2ccccc2n1CC(=O)NCCCN1CCOCC1	3.91%
Brc1ccccc1OCCOCCN1CCCC1	-3.74%
O=C(NCc1ccc(F)cc1)c1ccc(CNc2c(N3CCOCC3)c(=O)c2=O)cc1	2.76%
O=C(/C=C/c1ccccc1)NCc1ccc(Cl)cc1	0.0792%
COc1cc(-c2nc3ccccn3c2/N=C/c2cccc(OC)c2O)ccc1O	13.2%
O=C(NCC1CCCO1)c1nnc(O)c2ccccc12 (centres unmarked)	2.29%
COc1cccc(C2CC(=O)NC(SC)=C2C#N)c1 (centres unmarked)	4.38%
N#CCNC(=O)[C@H](Cc1c(F)cc(Br)cc1F)NC(=O)OCc1ccccc1	-6.56%
Cc1cc(C)c(C(N)=O)c(Nc2ccc3c(c2)OCCO3)n1	0.475%
CCCCN(CC)CCNC(=O)Cn1ncc2c3ccccc3n(CCC)c2c1=O	-0.48%
Cc1cccc(-n2c(-c3ccco3)nc3ccccc3c2=O)n1	-3.54%
CC1CCCC(NC(=O)c2ccc(CS(=O)(=O)Cc3ccc(Cl)cc3)o2)C1C (centres unmarked)	0.387%
COc1ccc2c(CNCC(C)c3ccccc3)c(C(=O)O)n(Cc3ccccc3C)c2c1 (centres unmarked)	-8.85%
c1ccc(C2(CNc3ccccn3)CCCC2)cc1	2.78% and -2.36%
COc1ccc(-c2nnc(SCC(N)=O)n2C)cc1OC	-3.1%

SMILES	% Inhibition @ 10 uM
C(#Cc1ccc(C#CCN2CCCCC2)cc1)CN1CCCCC1	-2.44%
O=C(Nc1cccnc1)C1CCCN(S(=O)(=O)c2ccc3nc(O)ccc3c2)C1 (centres unmarked)	-4.06%
CC(=O)Nc1sc2c(c1C(c1ccc(OC(F)F)cc1)N1CCOCC1)CCCC2 (centres unmarked)	2.45%
Cc1nc2c(c(C)c1CCC(=O)N1CCC(N3CCCCC3)CC1)c(=O)n(C)c(=O)n2C	-6.91%
CCCC(Nc1ccccc1)N1C(=O)CCC1=O (centres unmarked)	5.24%
c1ccc(CNc2nnnc3c2sc2nc(N4CCOCC4)c4c(c23)CCCC4)cc1	-1.11%
CCOC(=O)c1conc1-c1sccc1C	-3.86%
CC(C)/C=C1\CC/C(=C\c2ccccn2)C1=O	6.89%
N#CCCN1CCN(S(=O)(=O)c2ccc(S(=O)(=O)NC3CC3)cc2)CC1	3.25%
O=S(=O)(Nc1cccc(F)c1)c1ccc(Cl)cc1	-2.63%
O=C(NC1CCCc2ccccc21)c1oc(=O)c2ccccc2c1-c1ccccc1 (centres unmarked)	1.9%
CCOC(=O)C1=C(C)NC(=O)NC1C (centres unmarked)	-5.9%
Cc1cc(C(=O)Nc2cc(C)n(Cc3ccc(Cl)cc3)n2)no1	-0.591%
O=C(CSCc1ccc(F)cc1)NCc1ccc(F)cc1Cl	3.79%
CCOc1ccc2noc3c2c1C(=O)c1ccccc1-3	2.94%
C=CCC1N(c2ccccc2Cl)C(=O)C2C(C(=O)O)C3C=CC21O3 (centres unmarked)	-0.949%
COc1ccc(CNc2nc(-c3cccnc3)nn2S(C)(=O)=O)cc1	0.558%
CCOC(=O)C1=C(O)/C(=C\c2ccc(F)cc2)N=C1C	-0.292%
Cc1cccc(NC(=O)c2cccc(S(=O)(=O)Nc3ccccc3C)c2)c1	-0.0369%
CC(C)OCCCNC(=O)CCC(=O)n1ncc2ccc(Cl)cc21	6.7%
O=C1Cn2c3c(c4cccc(c42)N1)CN(Cc1ccccc1)CC3	4.37%
